The values that follow come from ChEMBL document CHEMBL4888484, “Replenishing the malaria drug discovery pipeline: Screening and hit evaluation of the MMV Hit Generation Library 1 (HGL1) against asexual blood stage Plasmodium falciparum ,using a nano luciferase reporter read-out” (2022).

The campaign covered roughly 150,000 compounds. About 540 (0.36%) showed an effect of 50% or more. The list shows a part of the results.

In the test the test system is Plasmodium falciparum. Nature of the test: Primary screen in NF54 nanoGlo assay, in single point, at 2uM, 72h; a lower Z score goes with more inhibition. The test is classed as functional, Erythrocyte. Particulars: timepoint 72 hour.
`Cc1nc([C@H](C)NC(=O)c2cc3ncccn3n2)c(C)s1`: the “% Inhibition” value is -9% and the Z score was determined as 1.42.
Regarding `O=C(N1CCCC1)[C@]1(F)CCCN(Cc2cccnc2)C1`, the “% Inhibition” value is listed as -30% and the Z score came out at 2.61.
The like results for `CCN(Cc1cscn1)[C@H]1CCOC(C)(C)C1` were, in that order, 4% and -0.93.
The like results for `COCCNc1nc2c(c(N3CCCCCC3)n1)CCNCC2` were, in that order, 5% and -0.97.
The like results for `CCC1(CC)C(OC)CC1N(C)CCS(N)(=O)=O` (stereo unspecified) were, in that order, 0% and -0.06.
As for `CN(C)[C@@H](CNC(=N)Nc1ccccc1)c1cccs1`, the “% Inhibition” value is listed as -1% and the Z score is on record as 0.15.
With `CC1(C)CN(C(=O)CN2CC[C@H](Nc3ncccn3)C2)CCO1`, the “% Inhibition” value was -7% and the Z score is given as 0.93.
The like results for `CC(=O)N1CCC(NC(=O)c2cc3c(C)nn(-c4ccccc4)c3s2)CC1` were, in that order, -7% and 1.
The like results for `COC(C)(C)C[C@H](C)NCCn1nc(C)c(Cl)c1C` were, in that order, 1% and -0.11.
On the same counts, the results for `CC(C)Cn1nc2n(c1=O)CC1CCC(C2)N1C(=O)c1cc[nH]n1` (stereo unspecified) are -2% and 0.22.
Turning to `CC1CCCC(OCC(=O)NC(C)CCN2CCOCC2)C1` (stereo unspecified), the “% Inhibition” value came to 4% and the Z score is on record as -0.58.
On the same counts, the results for `CC(=O)N1CC[C@]23C(=O)N(CC(=O)N(C)CCCOc4cccc(c4)[C@H]12)c1ccccc13` are -4% and 0.72.
The like results for `COc1nc2c(cc1CNC(=O)[C@H](C)c1ccccc1)C(=O)N(C1CCCC1)C2` were, in that order, -2% and 0.21.
On the same counts, the results for `CC(C)(C(=O)N1C[C@@H]2CS(=O)(=O)C[C@@H]2C1)c1ccc(F)cc1F` are -2% and 0.46.
For `CC(=C(F)C(=O)N(C)CCc1ncc(Br)cn1)C1CC1`, the “% Inhibition” value is reported as -11% and the Z score stood at 1.93.
On the same counts, the results for `FCC1CN(Cc2ccc3cn[nH]c3c2)C1` are -1% and 0.19.
On the same counts, the results for `Cc1cnn([C@H]2CCN(C(=O)CCC(C)(C)C)C2)c1` are 27% and -3.58.
For the molecule `Nc1nc2c(cnc3c(F)cccc32)c(=O)[nH]1`, the “% Inhibition” value is 1% and the Z score is -0.1.
The like results for `OC(COCc1cccs1)CN1CCCC1Cn1cncn1` (stereo unspecified) were, in that order, -16% and 1.32.
As for `C[C@@]1(CO)CN(Cc2ccccc2)C[C@@H]2CN(C3CCOCC3)CCN21`, the “% Inhibition” value is listed as -2% and the Z score stood at 0.28.
On the same counts, the results for `O=C(Nc1cc(C2CC2)ccn1)c1ccncn1` are -16% and 2.06.
On the same counts, the results for `Cc1ccc(C(=O)N2CCn3c(nnc3C3CCN(S(=O)(=O)C(C)C)CC3)C2)c(C)c1` are -4% and 0.66.
As to `COCCNC(=O)NCC1(O)CCCC1`, the “% Inhibition” value is listed as 8% and the Z score is -0.93.
On the same counts, the results for `COc1ccccc1[C@@H]1CC(c2cccn2C)=NN1C(=O)CN(C)C(=O)C1CCC1` are -6% and 0.94.
Take `CCCC(C)(CNC(=O)CC1CCCO1)NC(=O)CC1CCCO1` (stereo unspecified): the “% Inhibition” value is recorded as -5% and the Z score came out at 0.7.
Regarding `Cc1ccc2c(NC(=O)NCC3(CO)CCC3)cccc2n1`, the “% Inhibition” value is -9% and the Z score was determined as 1.22.
As to `O=C([C@@H]1COc2ccccc2O1)N1CCc2sccc2C1`, the “% Inhibition” value was -7% and the Z score came out at 1.29.
On the same counts, the results for `CCN(c1ccc2sc(C(=O)N3CCN(c4ccccc4F)CC3)cc2c1)S(C)(=O)=O` are 4% and -0.54.
On the same counts, the results for `CN(c1ccc(Cl)c(C(=O)N2CCN(c3ccccc3)CC2)c1)S(C)(=O)=O` are -2% and 0.31.
The like results for `Cc1cc(C(=O)N2CCCN(Cc3ccc(F)cc3)[C@H](C(C)C)C2)no1` were, in that order, -1% and 0.15.
Turning to `O=C(CC1=Nc2ccccc2S(=O)(=O)N1)Nc1ccccc1F`, the “% Inhibition” value was -13% and the Z score was found to be 1.5.
For the molecule `CO[C@H]1CN(C(=O)CCc2c[nH]c3ccc(C)cc23)C[C@H]1OC`, the “% Inhibition” value was -2% and the Z score is given as 0.33.
On the same counts, the results for `Cc1ccn(-c2ccnc(NCc3ccc(F)cc3F)n2)n1` are -2% and 0.36.
Take `O=S1(=O)C[C@H](NC2CCCC2)[C@@H](S(=O)(=O)c2ccccc2)C1`: the “% Inhibition” value is listed as -2% and the Z score stood at 0.24.
Take `NC(=O)[C@H]1CC[C@@H](NC(=O)N2CCO[C@H](c3ccc(Cl)cc3)C2)C1`: the “% Inhibition” value is listed as -5% and the Z score came out at 0.7.
On to `O=C(CN1CCCS1(=O)=O)Nc1ccccc1Cc1ccccc1`, for which the “% Inhibition” value is on record as -7% and the Z score stood at 0.66.
The like results for `Cc1nc(N2CCCC[C@H]2c2nnc[nH]2)c(Cl)cc1C#N` were, in that order, -4% and 0.72.
Take `CN(C)C(=O)CCc1cccc(NC(=O)N2CCN3CCN(C)C(=O)[C@@H]3C2)c1`: the “% Inhibition” value is reported as -6% and the Z score was 1.06.
On the same counts, the results for `CC(C)CN1C(=O)c2ccccc2N[C@@H]1c1cn2ccccc2n1` are 4% and -0.46.
Consider `O=C(O)c1cc2cc(-c3cccc(C(F)(F)F)c3)ccc2[nH]c1=O`, for which the “% Inhibition” value was -11% and the Z score is recorded as 1.46.
Turning to `CN1CCO[C@H](C(=O)N(C)Cc2cc(Br)cn2C)C1`, the “% Inhibition” value is -5% and the Z score was found to be 0.89.
Regarding `CCS(=O)(=O)N(CCN1CCCCC1)C1CN(C(=O)CCc2c[nH]c3ccccc23)C1`, the “% Inhibition” value is -2% and the Z score is 0.28.
The like results for `Cc1cnn(CCC(=O)N2C[C@@H](CN3CCOCC3)C[C@H](CO)C2)c1` were, in that order, 3% and -0.54.

In general, % Inhibition refers to the relative decrease from the control value, in per cent.
